Results on 25 compounds are retold here after the supplement of paper PMC8285479.

Each structure is given as a SMILES string. Structures can show the parent of a compound that is named as a salt. ± gives the standard deviation of the averaged measurements. In all, about 1,900 compounds were measured (“normalised cell viability (NPI; 0 = phenylarsine oxide control, 1 = DMSO control)”: median about 1, lowest 2% from about 0.039 on). Some of the results follow.

The assay deals with NCI-H1944. The assay is described as follows: normalised cell viability (NPI; 0 = phenylarsine oxide control, 1 = DMSO control) (fraction of DMSO control); NCI-H1944 is a non-small cell lung cancer line; higher = more viable cells (less compound toxicity). The settings on record: 6 days.
Where [1] appears, read: glucocorticoid arm: hydrocortisone 2.75 uM co-treatment, compound 1 µM.
[2] abbreviates: glucocorticoid arm: hydrocortisone 2.75 uM co-treatment, compound 5 µM.
Setting [3] is: glucocorticoid arm: hydrocortisone 2.75 uM pre-treated 2 days and continued, compound 1 µM.
[4] abbreviates: glucocorticoid arm: hydrocortisone 2.75 uM pre-treated 2 days and continued, compound 5 µM.
Where [5] appears, read: glucocorticoid arm: vehicle, compound 1 µM.
Setting [6] is: glucocorticoid arm: vehicle, compound 5 µM.
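Further: CTB read-out in 384-well plates, mean of triplicate wells, normalised per plate against 1 µM phenylarsine oxide and 0.1% DMSO, compounds added 24 h after seeding.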

For the compound `Clc1ccc(Cn2c(CN3CCCC3)nc3ccccc32)cc1` [Clemizole hydrochloride], the normalised cell viability is, setting by setting: under setting [1], 1.003 ± 0.0061; under setting [2], 1.06 ± 0.01; under setting [3], 1.01 ± 0.012; under setting [4], 1.05 ± 0.014; under setting [5], 1.003 ± 0.0058; under setting [6], 1.023 ± 0.0058.

In the case of `Oc1ccc2ccccc2c1SSc1c(O)ccc2ccccc12`, the normalised cell viability was 1.03 ± 0.01 under setting [1]; 1.08 ± 0.021 under setting [2]; 1.017 ± 0.0058 under setting [3]; 1.01 ± 0.028 under setting [4]; 1.013 ± 0.0058 under setting [5]; 1.04 ± 0.01 under setting [6].

In the case of `CCCCc1nc2cc(/C=C/C(=O)NO)ccc2n1CCN(CC)CC` [Pracinostat (SB939)], the normalised cell viability is, setting by setting: under setting [1], 0.9753 ± 0.004; under setting [2], 0.00959 ± 0.0058; under setting [3], 1 ± 0.0095; under setting [4], 0.0658 ± 0.0071; under setting [5], 0.686 ± 0.077; under setting [6], 0.000852 ± 0.0004.

As for `O=C(O)/C=C/c1ccc(O)c(O)c1` [Caffeic Acid], the normalised cell viability was 0.993 ± 0.029 under setting [1]; 0.988 ± 0.009 under setting [2]; 0.993 ± 0.0062 under setting [3]; 0.988 ± 0.0085 under setting [4]; 1.017 ± 0.0058 under setting [5]; 1.01 ± 0.011 under setting [6].

On to `N=C(N)Nc1ccc(C(=O)Oc2ccc3cc(C(=N)N)ccc3c2)cc1` [Nafamostat mesylate], for which the normalised cell viability under setting [1] is 0.9887 ± 0.009; the normalised cell viability under setting [2] came to 1.01 ± 0.011; the normalised cell viability under setting [3] amounted to 1.01 ± 0.011; the normalised cell viability under setting [4] was 1.03 ± 0.017; the normalised cell viability under setting [5] came out at 1.002 ± 0.0072; the normalised cell viability under setting [6] is 1.013 ± 0.0058.

Consider `Cc1[nH]c2ccccc2c1C1=C(NCCc2ccc(F)cc2)C(=O)N(C)C1=O`, for which the normalised cell viability was 0.964 ± 0.019 under setting [1]; 0.962 ± 0.053 under setting [2]; 0.988 ± 0.011 under setting [3]; 0.973 ± 0.021 under setting [4]; 0.977 ± 0.007 under setting [5]; 0.9803 ± 0.0047 under setting [6].

Consider `OCC1OC(n2cnc3c(NC4CCCCC4)ncnc32)C(O)C1O` (stereo not given) [N6-Cyclohexyladenosine], for which the normalised cell viability amounted to 1.01 ± 0.012 under setting [1]; 1.02 ± 0.01 under setting [2]; 1.01 ± 0.019 under setting [3]; 1.01 ± 0.025 under setting [4]; 0.9773 ± 0.0015 under setting [5]; 0.981 ± 0.0036 under setting [6].

As for `N[C@@H](Cc1c[nH]c2ccc(O)cc12)C(=O)O` [5-Hydroxy-L-tryptophan], the normalised cell viability reads like this: under setting [1], 1.01 ± 0.012; under setting [2], 1.013 ± 0.0058; under setting [3], 1.017 ± 0.0058; under setting [4], 1.013 ± 0.0058; under setting [5], 1.01; under setting [6], 1.01 ± 0.011.

For the compound `CC(C)n1nc(-c2ccc3oc(N)nc3c2)c2c(N)ncnc21`, the normalised cell viability reads like this: under setting [1], 0.33 ± 0.017; under setting [2], 0.201 ± 0.0068; under setting [3], 0.454 ± 0.01; under setting [4], 0.295 ± 0.013; under setting [5], 0.169 ± 0.0025; under setting [6], 0.0832 ± 0.0029.

With `NC(=O)C1=CN(C2OC(COP(=O)(O)OP(=O)(O)OC[C@H]3O[C@@H](n4cnc5c(N)ncnc54)C(OP(=O)(O)O)[C@H]3O)C(O)C2O)C=CC1` (stereo not given in full) [NADPH tetrasodium], the normalised cell viability reads like this: under setting [1], 0.999 ± 0.0017; under setting [2], 0.995 ± 0.018; under setting [3], 0.9987 ± 0.0015; under setting [4], 1.02 ± 0.04; under setting [5], 1.007 ± 0.0058; under setting [6], 1.02 ± 0.017.

Consider `CC1=C(/C=C/C(C)=C/C=C/C(C)=C/C(=O)O)C(C)(C)CCC1` [Retinoic acid], for which the normalised cell viability by setting is: under setting [1], 0.98 ± 0.007; under setting [2], 0.993 ± 0.013; under setting [3], 0.998 ± 0.019; under setting [4], 0.997 ± 0.014; under setting [5], 0.9697 ± 0.0055; under setting [6], 0.973 ± 0.0099.

In the case of `CC1=C(/C=C/C(C)=C/C=C/C(C)=C/C(=O)O)C(C)(C)CCC1` [Retinoic acid; Tretinoin; 13-cis-retinoic acid], the normalised cell viability under setting [1] worked out at 1 ± 0.015; the normalised cell viability under setting [2] turned out to be 1.06 ± 0.011; the normalised cell viability under setting [3] was found to be 0.9537 ± 0.0093; the normalised cell viability under setting [4] was determined as 1.02 ± 0.015; the normalised cell viability under setting [5] amounted to 1.003 ± 0.0064; the normalised cell viability under setting [6] came to 1.01 ± 0.019.

For the compound `O=C(Nc1nc2cccc(-c3ccc(CN4CCS(=O)(=O)CC4)cc3)n2n1)C1CC1` [Filgotinib (GLPG0634)], the normalised cell viability runs as follows: under setting [1], 0.95 ± 0.015; under setting [2], 0.874 ± 0.019; under setting [3], 0.95 ± 0.016; under setting [4], 0.904 ± 0.035; under setting [5], 0.993 ± 0.01; under setting [6], 1 ± 0.012.

As to `CC(=O)Oc1ccccc1C(=O)O` [Aspirin (Acetylsalicylic acid)], the normalised cell viability is 0.981 ± 0.012 under setting [1]; 1.003 ± 0.0061 under setting [2]; 0.983 ± 0.012 under setting [3]; 1.01 ± 0.011 under setting [4]; 0.997 ± 0.001 under setting [5]; 1.003 ± 0.0061 under setting [6].

For the compound `CC(=O)Oc1ccccc1C(=O)O` [Acetylsalicylic acid], the normalised cell viability by setting is: under setting [1], 1.001 ± 0.0081; under setting [2], 0.996 ± 0.016; under setting [3], 0.974 ± 0.033; under setting [4], 0.9805 ± 0.0035; under setting [5], 0.991 ± 0.0062; under setting [6], 0.9943 ± 0.004.

As to `CC1=C(/C=C/C(C)=C/C=C/C(C)=C/C=C/C=C(C)/C=C/C=C(C)/C=C/C2=C(C)C(=O)[C@@H](O)CC2(C)C)C(C)(C)C[C@H](O)C1=O` [Astaxanthin], the normalised cell viability runs as follows: under setting [1], 0.9913 ± 0.0035; under setting [2], 0.989 ± 0.0079; under setting [3], 0.991 ± 0.016; under setting [4], 1.005 ± 0.0071; under setting [5], 0.993 ± 0.015; under setting [6], 1.002 ± 0.007.

For `CNS(=O)(=O)CCc1ccc2[nH]cc(C3CCN(C)CC3)c2c1` [Naratriptan], the normalised cell viability was 1.01 ± 0.012 under setting [1]; 1.02 ± 0.029 under setting [2]; 1.023 ± 0.0058 under setting [3]; 1.027 ± 0.0058 under setting [4]; 1 ± 0.0084 under setting [5]; 0.9963 ± 0.0038 under setting [6].

On to `O=C(O)c1ccc(-c2c[nH]c3ncc(-c4ccccc4)cc23)cc1C1CCCC1`, for which the normalised cell viability was determined as 1.02 ± 0.015 under setting [1]; 1.03 ± 0.015 under setting [2]; 1.013 ± 0.0058 under setting [3]; 1.02 ± 0.015 under setting [4]; 1.005 ± 0.0087 under setting [5]; 1.02 ± 0.016 under setting [6].

On to `CN1CCc2cc(Cl)c(O)cc2[C@@H](c2ccccc2)C1`, for which the normalised cell viability under setting [1] was 0.99 ± 0.0087; the normalised cell viability under setting [2] was 0.945 ± 0.0095; the normalised cell viability under setting [3] was 0.9893 ± 0.0078; the normalised cell viability under setting [4] stood at 0.952 ± 0.015; the normalised cell viability under setting [5] was 0.9837 ± 0.0035; the normalised cell viability under setting [6] worked out at 0.983 ± 0.007.

Turning to `Nc1ccc(N2C(=O)c3ccccc3C2=O)c(Cl)c1` [N-(4-Amino-2-chlorophenyl)phthalimide], the normalised cell viability under setting [1] was 0.995 ± 0.0056; the normalised cell viability under setting [2] worked out at 1.013 ± 0.0058; the normalised cell viability under setting [3] worked out at 0.999 ± 0.022; the normalised cell viability under setting [4] was found to be 1.01 ± 0.018; the normalised cell viability under setting [5] came to 0.994 ± 0.017; the normalised cell viability under setting [6] came to 1.003 ± 0.0058.

Take `CC1=C(C(=O)O)N2C(=O)[C@@H](NC(=O)[C@H](N)C3=CCC=CC3)[C@H]2SC1` [Cephradine]: the normalised cell viability was 1.03 ± 0.01 under setting [1]; 1.01 ± 0.019 under setting [2]; 1.02 ± 0.015 under setting [3]; 1.01 under setting [4]; 1.02 ± 0.01 under setting [5]; 1.03 ± 0.01 under setting [6].

For the compound `C=CC(=O)Nc1cc(Nc2nccc(-c3cn(C)c4ccccc34)n2)c(OC)cc1N(C)CCN(C)C`, the normalised cell viability is, setting by setting: under setting [1], 0.891 ± 0.003; under setting [2], 0.842 ± 0.022; under setting [3], 0.944 ± 0.015; under setting [4], 0.916 ± 0.034; under setting [5], 0.789 ± 0.028; under setting [6], 0.762 ± 0.045.

With `C#Cc1cccc(Nc2ncnc3cc4c(cc23)OCCOCCOCCO4)c1` [Icotinib], the normalised cell viability under setting [1] was found to be 0.9603 ± 0.0029; the normalised cell viability under setting [2] came out at 0.983 ± 0.016; the normalised cell viability under setting [3] was 0.965 ± 0.019; the normalised cell viability under setting [4] is 0.949 ± 0.016; the normalised cell viability under setting [5] is 0.968 ± 0.019; the normalised cell viability under setting [6] was found to be 0.958 ± 0.013.

`CCc1c(C)[nH]c2c1C(=O)C(CN1CCOCC1)CC2` (stereo not given) [Molindone hydrochloride]: the normalised cell viability is, setting by setting: under setting [1], 0.98 ± 0.012; under setting [2], 0.98 ± 0.017; under setting [3], 1.003 ± 0.0064; under setting [4], 1.02 ± 0.069; under setting [5], 0.979 ± 0.003; under setting [6], 0.9807 ± 0.0093.

On to `NC(=O)CNCCC(c1ccccc1)c1ccccc1` [N-(3,3-Diphenylpropyl)glycinamide], for which the normalised cell viability reads like this: under setting [1], 1.01 ± 0.012; under setting [2], 0.995 ± 0.021; under setting [3], 1.01; under setting [4], 1 ± 0.029; under setting [5], 1.003 ± 0.0058; under setting [6], 1.004 ± 0.0098.
